Where a chain is given by its changes, count along the chain named. Values belong to the binder of their own block, whether it stands above or below them.
Legend:
[1] = target: T1, TRAIL (Novoprotein Scientific Inc.) (UniProt P50591 114-281, limits assumed); experiment: cell-based or functional assay
human TRAIL = target: T2, human TRAIL (human, UniProt P50591 114-281, limits assumed); experiment: Biacore (SPR), fusion protein as ligand, hTRAIL
T2 construct: also called hTRAIL; TRAIL molecule

[2] = target: T1, TRAIL (Novoprotein Scientific Inc.); experiment: cell-based or functional assay; remark: listed apart in the source
T1 sequence (P50591 114-281 limits assumed): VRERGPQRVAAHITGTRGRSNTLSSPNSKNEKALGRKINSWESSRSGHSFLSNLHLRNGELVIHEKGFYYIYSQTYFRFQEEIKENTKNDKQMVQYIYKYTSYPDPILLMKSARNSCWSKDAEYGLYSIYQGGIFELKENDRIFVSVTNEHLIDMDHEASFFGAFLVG

Sequence of human TRAIL (P50591 114-281 limits assumed): as above

B1: YF01M3 (Fc fusion)
chain: ITQQDLAPQQRAAPQQKRSSPSEGLCPPGHHISEDGRDCISCKYGQDYSTHWNDLLFCAACTRCDSGEVELSPCTTTRNTVCQCEEGTFREEDSPEMCRKCRTGCPRGMVKVGDCTPWSDIECVHKEEF[no letters for human IgG1 Fc]
notes: also called M3 fused with human IgG1-Fc; M3-1 (probably)
- apoptosis rate (%) of Jurkat cells with 200 ng/ml TRAIL plus fusion protein (0.125 mg/ml per paragraph 187); TRAIL alone 18.42, Normal 2.57 [1]: 9.39%
- koff (human TRAIL): 8.35e-05 s⁻¹

B5: YF01M16 (Fc fusion)
chain: B1 chain with I32A, D35S, T50N, D54S, A59V, A60R, E92S
- apoptosis rate (%) of Jurkat cells with 200 ng/ml TRAIL plus fusion protein; TRAIL alone 27.2, Normal 3.86 [2]: 13.8%

B6: YF01M14 (Fc fusion)
chain: B1 chain with I32L, D35S, T50N, D54H, A59L, A60R, D93N
- apoptosis rate (%) of Jurkat cells with 200 ng/ml TRAIL plus fusion protein; TRAIL alone 27.2, Normal 3.86 [2]: 13.6%

B7: YF01M5 (Fc fusion)
chain: B1 chain with A59L, A60R, R99A, K100A
notes: also called M5 fused with human IgG1-Fc
- Kd (human TRAIL): 0.329 nM
- koff (human TRAIL): 0.000131 s⁻¹

B8: YF01M3G1m (Fc fusion)
chain: ITQQDLAPQQRAAPQQKRSSPSEGLCPPGHHISEDGRDCISCKYGQDYSTHWNDLLFCAACTRCDSGEVELSPCTTTRNTVCQCEEGTFREEDSPEMCRKCRTGCPRGMVKVGDCTPWSDIECVHKEEF[no letters for human IgG1 Fc with D265A (EU numbers)]
- apoptosis rate (%) of Jurkat cells with 200 ng/ml TRAIL plus fusion protein (0.125 mg/ml per paragraph 187); TRAIL alone 18.42, Normal 2.57 [1]: 9.83%

B9: YF01M3G4 (Fc fusion)
chain: ITQQDLAPQQRAAPQQKRSSPSEGLCPPGHHISEDGRDCISCKYGQDYSTHWNDLLFCAACTRCDSGEVELSPCTTTRNTVCQCEEGTFREEDSPEMCRKCRTGCPRGMVKVGDCTPWSDIECVHKEEF[no letters for human IgG4 Fc with S228P (EU numbers)]
- apoptosis rate (%) of Jurkat cells with 200 ng/ml TRAIL plus fusion protein (0.125 mg/ml per paragraph 187); TRAIL alone 18.42, Normal 2.57 [1]: 9.45%

The next lines start with the values.

- apoptosis rate (%) of Jurkat cells with 200 ng/ml TRAIL plus fusion protein; TRAIL alone 27.2, Normal 3.86 [2]: 8.51%
B2: YF01M63 (Fc fusion)
chain: B1 chain with A59V, A60V

- apoptosis rate (%) of Jurkat cells with 200 ng/ml TRAIL plus fusion protein; TRAIL alone 27.2, Normal 3.86 [2]: 6.88%
B3: YF01M65 (Fc fusion)
chain: B1 chain with A59S, A60S

- apoptosis rate (%) of Jurkat cells with 200 ng/ml TRAIL plus fusion protein; TRAIL alone 27.2, Normal 3.86 [2]: 8.1%
B4: YF01M36 (Fc fusion)
chain: B1 chain with I32A, E34Q, D35S, T50S, D54S, A59V, A60R, D93K
